The source of these data is ChEMBL document CHEMBL1201862, “PubChem BioAssay data set” (2004).

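Step 1: Grow cells in 96-well plates. Step 2: Expose to compound for 48 hours at 5 concentrations. Step 3: Interpolate endpoints linearly; if unreached, use highest concentration. GI50 marks 50% less growth.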 Calls of active or inactive are those of the source. Rule as the data show it: active = GI50 up to about 1.1 µM and inactive = higher.

In the experiment the test system is NCI-H322M. Briefly: NCI tumour cell line growth inhibition, 48 h.
As to `CCCCn1cnc2c(c(CC#N)nn2-c2ccccc2)c1=N`, the GI50 is inactive: > 100 µM.
Take `Nc1nc(SCc2ccccc2Cl)cc(C(=O)O)n1`: the GI50 is inactive: 51.1 µM.
The result for `O=C(O)c1nnsc1-c1ccc(-c2snnc2C(=O)O)cc1` reads inactive: 46.8 µM.
To `CC(C)(C)OC(=O)C(C1NC(C(=O)O)C(C)(C)S1)N1C(=O)c2ccccc2C1=O` (stereo unspecified) belongs inactive: > 100 µM; to `Oc1ccccc1/C=N/Cc1ccco1`, inactive: > 100 µM; to `COc1ccc(C(=O)C(C(=O)CCC(=O)Nc2cccc(C(F)(F)F)c2)c2ccccc2)cc1` (stereo unspecified), inactive: > 100 µM.
`CSc1[nH]nc(N)c1C(=O)Nc1ccc(Cl)cc1`: the GI50 is inactive: 55.2 µM.
To `Cc1cc(C)c([S@@](=O)O[C@@H]2[C@H]3OC(C)(C)O[C@H]3O[C@@H]2[C@H]2COC(C)(C)O2)c(C)c1` belongs inactive: 51.8 µM; to `O=C1/C(=C/c2ccccc2Cl)COc2ccc(Br)cc21`, inactive: > 100 µM; to `CN(C)CCCCN1c2ccccc2Sc2ccc(N=[N+]=[N-])cc21`, inactive: 8.89 µM.
To `C=C1CCC2C(C)(CO)C(O)CCC2(C)C1C/C=C1/CCOC1=O` (stereo unspecified) belongs inactive: > 100 µM.
The result for `Cc1ccc(Sc2cc([N+](=O)[O-])cc(Sc3ccc(C)cc3)c2Sc2ccc(C)cc2)cc1` reads inactive: > 100 µM; that for `CC(=O)Oc1ccc(C2SCc3nc4ccccc4n32)cc1` (stereo unspecified), inactive: > 100 µM; that for `Cc1ccc(NCC(=O)N2CC(=O)Nc3ccccc32)cc1`, inactive: > 100 µM.
Turning to `CCC(=O)ONC(=O)Cn1ccc([N+](=O)[O-])n1`, the GI50 was inactive: > 100 µM.
The result for `CCN(CC)CCC(=O)c1ccc(Oc2ccc(F)cc2)cc1` reads inactive: > 100 µM; that for `Oc1cccc(-c2ccc3c4c2O[C@H]2c5[nH]c6ccccc6c5C[C@@]5(O)[C@@H](C3)N(CC3CC3)CC[C@]425)c1`, inactive: 3.05 µM.
Consider `COc1cc(OC)c(C2(c3c(OC(C)C)c(=O)c3=O)SCCCS2)cc1OC`, for which the GI50 was inactive: > 100 µM.
With `CCCCN(CCCC)C(=O)C(=O)C(C#N)c1ccc(C)cc1` (stereo unspecified), the GI50 is inactive: > 100 µM.
To `CS(=O)(=O)OCC1CCCCCCCCCCC12SCCCS2` (stereo unspecified) belongs inactive: > 100 µM.
In the case of `NCCCN(CCCN(C(=O)Nc1ccccc1)c1ccccc1)C(=O)Nc1ccccc1`, the GI50 was inactive: 31.1 µM.
In the case of `c1cc(-c2ccc(-c3ccc(-c4ccc(-c5cccc6nsnc56)[nH]4)c4nsnc34)[nH]2)c2nsnc2c1`, the GI50 was inactive: > 100 µM.
The result for `O=c1c2ccccc2nc2n1NC(c1c(Cl)cccc1Cl)N2c1cccc(Cl)c1` (stereo unspecified) reads inactive: 4.39 µM.
Take `CC1(C)N=C(/C(C#N)=[N+](/[O-])C(=O)c2ccccc2)C(C)(C)N1O`: the GI50 is inactive: > 100 µM.
To `COc1ccc2cc(Oc3ccc(Cl)cc3)c(=O)oc2c1` belongs inactive: > 100 µM; to `O=[N+]([O-])c1cn[n+]([O-])c2ccccc12`, inactive: 14.1 µM; to `CN(C)S(=O)(=O)Nc1nnc(S(N)(=O)=O)s1`, inactive: > 100 µM.
The result for `COC(=O)C(=O)C(C(=O)C(=O)Nc1ccc(OC)cc1[N+](=O)[O-])c1nc2ccc([N+](=O)[O-])cc2nc1O` (stereo unspecified) reads inactive: > 100 µM; that for `Nc1ccc2ncc(Nc3ccc(F)cc3)nc2c1`, inactive: > 100 µM; that for `COc1ccc(N2C(=O)C3c4[nH]c5ccccc5c4C4c5ccccc5CC4C3C2=O)cc1` (stereo unspecified), inactive: > 100 µM.
The result for `CCOC(=O)C1(C#N)C(c2ccccc2)CC(O)(c2ccc([N+](=O)[O-])cc2)C(C(=O)c2ccc([N+](=O)[O-])cc2)C1c1ccccc1` (stereo unspecified) reads inactive: > 100 µM; that for `N=C(N)NS(=O)(=O)c1ccc(Nc2c3ccccc3nc3c(C(=O)Nc4ccc(S(N)(=O)=O)cc4)cccc23)cc1`, inactive: > 100 µM; that for `COC(=O)C1(C)CCC(c2ccc(C)cc2)=C(CC(=O)O)C1` (stereo unspecified), inactive: > 100 µM.
Regarding `COc1c(OC(C)=O)ccc(/C=C2\N=C(C)OC2=O)c1[N+](=O)[O-]`, the GI50 is inactive: > 100 µM.
For `CC(C)OC1=C(CC2(C)OCCO2)C(=O)C12OCCO2`, the GI50 is inactive: > 100 µM.
The result for `N#CC(C(=O)C(=O)Nc1ccccc1)c1ccccc1` (stereo unspecified) reads inactive: > 100 µM; that for `COC(=O)/C(=N\NC(=S)NN)C(C(=O)OC)C(=O)C(=O)Nc1cccc(C(F)(F)F)c1` (stereo unspecified), inactive: > 100 µM.
The result for `N#CC(C#N)=Cc1ccc(C=C2SC3=C(SCCS3)S2)s1` reads inactive: > 100 µM.
The result for `COc1ccc2[nH]c3c(c2c1)COc1ccccc1C3=O` reads inactive: > 100 µM; that for `Cc1ccc(-n2c(=O)c3nn4c(=O)n(-c5ccc(C)cc5)c(=O)c4nn3c2=O)cc1`, inactive: > 100 µM; that for `Cc1cc(N(CCC#N)CCC#N)ccc1/C=C1N=C(/C=C\c2ccccc2)OC\1=O`, inactive: > 100 µM.
On to `COCCN1C2=CCCCC2=Nc2c1nc(N)[nH]c2=O`, for which the GI50 is inactive: > 100 µM.
The result for `Brc1ccc2[nH]cc(-c3csc(-c4c[nH]c5ccccc45)n3)c2c1` reads inactive: 3.07 µM.
The result for `Cc1c(N2C(=O)C(Cl)C2/C=C/c2ccccc2)c(=O)n(-c2ccccc2)n1C` (stereo unspecified) reads inactive: 14.9 µM.
To `CCc1n[nH]c(=O)n1N1C(=O)C2CCCCC2C1=O` (stereo unspecified) belongs inactive: > 100 µM; to `CN1C[C@@H]2CCCN2P1Oc1cccc2cccnc12` (stereo partly specified), inactive: > 100 µM; to `O=c1oc2ccccc2c(Nc2ccc3c(c2)S(=O)(=O)c2ccccc2O3)c1[N+](=O)[O-]`, inactive: 34.9 µM.
As to `CCCNC1=C2C[C@@H](C)C[C@@H](OC)[C@@H](OC(=O)CCCN)[C@H](C)/C=C(\C)[C@@H](OC(N)=O)[C@H](OC)/C=C\C=C(/C)C(=O)NC(=CC1=O)C2=O`, the GI50 was inactive: 16.6 µM.
The result for `CN(C)CCCn1c2ccccc2c2cnccc21` reads inactive: 39 µM; that for `COc1cc2c[n+](C)c3c4cc(OC)c(OC(C)C)cc4ccc3c2cc1OC`, inactive: > 100 µM.
To `CCCCCCCCCCCCCC(=O)OC1CC(=O)OC1CO` (stereo unspecified) belongs inactive: > 100 µM.
The result for `COC(=O)C1CCc2nnc(-c3ccccc3)n21` (stereo unspecified) reads inactive: > 100 µM; that for `COc1c(C(C)(C)C)cc(CC2C(=O)C=CC2=O)cc1C(C)(C)C`, inactive: 17.3 µM.
With `CSC(=S)OC1CC(n2cnc3c(NC(=O)c4ccccc4)ncnc32)OC1CO[Si](C)(C)C(C)(C)C` (stereo unspecified), the GI50 is inactive: 50.5 µM.
With `Cc1ccc2nc3cc(C)c(=O)cc-3sc2c1`, the GI50 is inactive: > 100 µM.
To `COC(=O)C1CCN(C(=O)OC(C)(C)C)CC1` belongs inactive: > 100 µM; to `O=C1/C(=C\c2cccc(Oc3ccccc3)c2)S(=O)(=O)C(c2ccccc2)N1c1cc(Cl)ccc1Cl` (stereo unspecified), inactive: 30.1 µM.
The result for `O=Cc1cc2c(s1)C(=O)c1sccc1C2=O` reads inactive: 1.63 µM.
The result for `CCOc1ccc2nc(NC(=O)C(=O)C(C(=O)c3ccccc3F)C3OC(=O)c4ccccc43)sc2c1` (stereo unspecified) reads inactive: 27.2 µM; that for `Clc1ccc(-c2nnc3sc4nc5ccccc5c-4nn23)c(Cl)c1`, inactive: 97.5 µM.
For `Cc1cc(NCCCCCCNc2cc(C)nc3cc(N(C)C)ccc23)c2ccc(N(C)C)cc2n1`, the GI50 is inactive: 61.2 µM.
The result for `O=c1cc(-c2ccccc2)oc2cc(OCC(O)COc3ccc4c(=O)cc(-c5ccccc5)oc4c3)ccc12` reads inactive: > 100 µM.
Take `O=c1oc2ccccc2n1CCCn1c(=O)oc2ccccc21`: the GI50 is inactive: > 100 µM.
To `CCc1n[nH]c(=O)n1-c1ccc2ccccc2c1` belongs inactive: > 100 µM.
To `COC(=O)C1CC2CCC1(O[Si](C(C)C)(C(C)C)C(C)C)C(O)C2` (stereo unspecified) belongs inactive: 24 µM; to `CC1c2c(Cl)nc3ccccc3c2Oc2c1c(Cl)nc1ccccc21`, inactive: > 100 µM.
Take `Cc1cc(O)cc(O)c1C(=O)O[C@]1(C)C(=O)C=C2C=C(/C=C/C(=O)O)OC=C2C1=O`: the GI50 was inactive: 76.9 µM.
As to `COc1ccc(CC(=O)NCCc2ccc(OC)c(OC)c2)cc1Br`, the GI50 is inactive: > 100 µM.
To `Nc1ncnc2c1nnn2C1C=CC(CP(=O)(O)O)C1` (stereo unspecified) belongs inactive: > 100 µM; to `COc1cccc(C2c3cc4c(cc3OC(O)C2C)OCO4)c1OC` (stereo unspecified), inactive: 12.1 µM; to `COC(=O)C1CCc2c(OC)ccc(OC)c2C1=O` (stereo unspecified), inactive: > 100 µM.
To `COC(=O)C1Cc2c(OC)ccc(OC)c2C(O)C1C(=O)OC` (stereo unspecified) belongs inactive: > 100 µM.
Turning to `O=[N+]([O-])/C(C(Cl)=C(Cl)Cl)=C(\N1CCCCC1)n1nnc2ccccc21`, the GI50 is inactive: 17.8 µM.
`COc1cc([N+](=O)[O-])c(S(=O)(=O)O)cc1-n1nc(C(=O)Nc2ccccc2)n[n+]1-c1cc(S(=O)(=O)[O-])c([N+](=O)[O-])cc1OC`: the GI50 is inactive: > 100 µM.
The result for `COc1ccc(C(c2ccc(C(C)C)cc(OC)c2=O)c2ccc(C(C)C)cc(OC)c2=O)cc1` reads inactive: 13.8 µM; that for `CC1=C2N3C[C@@H](n4c(=O)n(C)c(=O)n43)C23CCC1n1c(=O)n(C)c(=O)n13`, inactive: > 100 µM; that for `CC(=O)OC12c3ccccc3-c3ccccc3C1C(C(=O)O)C2C(=O)O` (stereo unspecified), inactive: > 10 µM.
On to `COC(=O)C1=C(OC)c2cc3c(cc2C(c2cc(OC)c(OC)c(OC)c2)C1C(=O)OC)OCO3` (stereo unspecified), for which the GI50 was inactive: > 100 µM.
The result for `O=c1c(C(c2cccc(C(c3c(O)oc4ccccc4c3=O)c3c(O)oc4ccccc4c3=O)c2)c2c(O)oc3ccccc3c2=O)c(O)oc2ccccc12` reads inactive: 44.7 µM; that for `CCCCCC[N+](C)(C)Cc1ccc(C[N+](C)(C)CCCCCC)cc1`, inactive: 3.64 µM; that for `O=C(CCN1CCCCC1)Nc1ccc2sc3ccccc3c(=O)c2n1`, inactive: 17.5 µM.
